# Assay results reported in the supplement of paper PMC3334620.
# In all, about 33,000 sequences were measured (“E-score (-0.5 to 0.5)”: median about -0.056, highest 2% from about 0.38 on). The list shows a part of the results.
# Molecular target: Stb4 (UniProt P50104)
# Experiment: PBM E-score (8-mer binding enrichment) (E-score (-0.5 to 0.5)); higher = stronger / more preferred TF binding; most listed sequences are background and not binding sites
# Conditions: protein concentration: 200 nM; construct: GST-DNA-binding domain
# Procedure, shortened: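 Universal all-10-mer Agilent arrays, fresh or stripped once, were converted to double-stranded form by primer extension. GST-tagged yeast transcription factors from PURExpress in vitro transcription/translation, full-length or DNA-binding domain only, were applied at about 100-200 nM and detected with fluorescent anti-GST. After masliner normalisation, the Universal PBM Analysis Suite scored each ungapped eight-base word together with its reverse complement by E-score.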
row,Sequence,PBM E-score
1,CCGGCGCA,0.28
2,CAAGACAC,-0.132
3,GGCTTGAC,-0.0779
4,ACAATGAA,-0.217
5,AGCCGGTA,0.288
6,CGCTGTGA,-0.276
7,CCCCCCAG,-0.272
8,CACACCTC,0.0336
9,CCAATAGC,-0.176
10,CTGGACAG,-0.0848
11,ATTAATTG,-0.0146
12,ACGTTCCC,0.11
13,CGTCCAAA,0.0827
14,AACTTGTG,-0.0682
15,AGAATCTA,-0.117
16,ATGGGAAG,-0.0949
17,AAACGATA,-0.0983
18,ATTTTAGG,-0.171
19,ATAGCGTA,0.0356
20,CTTGCAAG,0.16
21,TACCCTGA,-0.169
22,ATATGTTA,-0.101
23,CTGACGAC,-0.1
24,ACAGCATC,-0.102
25,AATGAGGA,-0.193

row,Sequence,PBM E-score
1,AAGTACTG,-0.0747
2,GTGCCCGA,0.22
3,ACACGCCG,0.288
4,AAACACAA,-0.103
5,ACATCCCG,0.369
6,AGACGCGA,-0.0481
7,CTTGCGTA,-0.171
8,CACCGACA,0.0883
9,AGAGTGAG,-0.228
10,AACGGGTA,0.349
11,CGGAGGAC,0.206
12,AAAAGTAG,-0.1
13,ACTTGTCA,-0.00102
14,AGCAAGAC,-0.00087
15,CCAGACTC,-0.0717
16,GTATGGTA,-0.241
17,TATAGTCA,-0.232
18,AAGCTGAG,-0.167
19,CTAAGAGA,-0.179
20,CGAGAACC,0.266
21,CCCCTAGG,-0.135
22,GAGAGCAC,0.0715
23,GACAGTAC,0.0451
24,GCAGAAAC,-0.138
25,AGATCGCG,0.0394

row,Sequence,PBM E-score
1,AAGTTACG,0.023
2,ACTAAAAG,-0.00624
3,GACACGCA,-0.0418
4,GCTAGATA,-0.118
5,CACCACTA,-0.0752
6,GTAGATAC,-0.172
7,CAGGACCC,-0.0217
8,CGCAGTGA,-0.0931
9,ATTGTAAC,-0.0318
10,CCACGAAC,-0.155
11,ACATGACG,-0.178
12,CCAGGACG,-0.18
13,GCAGGTCC,-0.0506
14,CTTAGTTC,-0.0641
15,ACCGTTCT,-0.0204
16,GAATCTAC,-0.0991
17,GAGTGCAA,0.0454
18,AAGACGGC,-0.0316
19,TCAAAGGA,-0.205
20,ATGTTATG,0.0361
21,ACCACAGT,-0.0147
22,CGCAATGC,0.0575
23,AGAGCTTG,-0.238
24,ATTCACAG,-0.109
25,ATGAGAGG,-0.118

row,Sequence,PBM E-score
1,AGCCCGTA,-0.159
2,ACGAAGAA,-0.0766
3,GCCACTCC,0.00528
4,AACGTTTA,-0.0617
5,GTACGATA,-0.357
6,ACGCCGGA,0.29
7,ACGGAATA,0.323
8,AAACACCC,0.167
9,CCCGTCGC,-0.00272
10,CAAAATTA,0.0863
11,CTGCTTCA,-0.269
12,CCCCAAGG,-0.261
13,CGTCATAA,0.077
14,AAACATGT,-0.00346
15,CCAACTGA,-0.189
16,GTTGCACA,-0.207
17,AAATCCAC,-0.177
18,ATTTTTTC,0.278
19,ATATACTG,0.0269
20,AGGCAAGC,-0.188
21,CGTCCCTA,-0.0426
22,CTGGCTGC,-0.108
23,CATGATAC,0.121
24,CGAGATTC,0.229
25,CCAAGTAG,-0.308

row,Sequence,PBM E-score
1,CCTGGTCG,0.0328
2,CTTTTGCC,0.0374
3,ATTTCCTG,-0.0528
4,GAGACCCC,0.0379
5,GGACAGCA,-0.0714
6,CGAATGAA,0.0337
7,ACTGCTAG,-0.239
8,AGGGGGGG,-0.356
9,AGACTTTG,-0.234
10,AATTTTGA,-0.0291
11,GATCAGTA,-0.0566
12,CCAAGGAA,0.0787
13,AAAGTGTC,-0.00674
14,ACTATGGA,-0.238
15,CCCGTCGA,0.102
16,GATAAAAA,0.152
17,CATAGGCA,-0.204
18,CGCCTAGA,-0.0246
19,GGGAAGTA,0.184
20,GGTCCTAA,0.0238
21,TCCCCGAA,0.37
22,CAATCGCA,-0.123
23,ACGACTCA,0.0822
24,CGCCCACG,-0.0319
25,CCGCTGTA,0.0877

row,Sequence,PBM E-score
1,GACGCATC,0.122
2,GTCACTTA,0.0135
3,TTAATTAA,-0.3
4,ATGGGCCG,0.143
5,GGATCTGA,0.219
6,ATTCGTCA,-0.114
7,ACCCTGAC,-0.0728
8,AGTATCTA,-0.242
9,AGTGTGCG,0.0389
10,CCTTAGGC,-0.179
11,ACGATTCC,0.06
12,ATGGTGTC,-0.0683
13,ATGGTATC,0.089
14,GTTATTGA,-0.0873
15,CAATGGGA,-0.0868
16,TAGGTATA,-0.103
17,GAATGGAC,-0.0937
18,CCGTATTA,0.183
19,AAATATGC,0.00259
20,AAATCCCA,-0.122
21,CCAACCGC,0.059
22,TCCGCCCA,0.162
23,GGTGGCTA,-0.106
24,AAGATTAT,0.113
25,GATTATTA,0.17

row,Sequence,PBM E-score
1,AATTTAGA,-0.00117
2,TAATACAA,-0.0486
3,CCGGGTCC,0.237
4,GTTGCAGA,-0.0619
5,TTCTACAA,-0.129
6,TCCCTTAA,-0.364
7,GCGTTCAA,-0.0369
8,CTTAAATC,-0.0323
9,TCAAGTAA,-0.19
10,ATAAGCCG,0.315
11,CTCGTTCA,-0.122
12,CCTAAAAA,-0.0526
13,TGGCAAAA,-0.121
14,CCAGTTAC,-0.082
15,ATCCCAGG,-0.0327
16,ACGAAGTG,-0.167
17,ACAATTAT,0.0362
18,ATTTGTGG,-0.0839
19,ACCAGACT,-0.255
20,CCCCTATC,-0.0491
21,GAAGAGCC,0.195
22,AGTCCGTA,-0.0959
